In the supplement of paper PMC8728848:
This is one part of the list.

Experiments:
Experiment in all cases: glycan array binding signal (z-score within array); higher = stronger binding
Conditions in all cases: glycan notation: IUPAC condensed, linker removed
[1] = target: GlcNAc(a1-6)Gal(b1-4)GlcNAc
Summary of the method: (§1)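 Glycan array binding is given as a within-array Z-score, which can be read as non-binding when negative. The arrays, 3228 of them, came from the Consortium for Functional Glycomics database and were retained only where the protein sequence was available. Z-scores were averaged across arrays of the same protein sequence at different concentrations or buffers and across linkers.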

[2] = target: GlcNAc(b1-2)Gal(b1-3)GalNAc
Summary of the method: as §1

[3] = target: GlcNAc(b1-2)Man(a1-3)[GlcNAc(b1-2)Man(a1-6)]Man(b1-4)GlcNAc(b1-4)GlcNAc
Summary of the method: as §1

[4] = target: GlcNAc(b1-2)Man(a1-3)[GlcNAc(b1-2)Man(a1-6)]Man(b1-4)GlcNAc(b1-4)[Fuc(a1-6)]GlcNAc
Summary of the method: as §1

[5] = target: GlcNAc(b1-2)Man(a1-3)[GlcNAc(b1-4)][GlcNAc(b1-2)Man(a1-6)]Man(b1-4)GlcNAc(b1-4)GlcNAc
Summary of the method: as §1

[6] = target: GlcNAc(b1-2)Man(a1-3)[GlcNAc(b1-4)][GlcNAc(b1-2)Man(a1-6)]Man(b1-4)GlcNAc(b1-4)[Fuc(a1-6)]GlcNAc
Summary of the method: as §1

[7] = target: GlcNAc(b1-2)[GlcNAc(b1-4)]Man(a1-3)[GlcNAc(b1-2)Man(a1-6)]Man(b1-4)GlcNAc(b1-4)GlcNAc
Summary of the method: as §1

[8] = target: GlcNAc(b1-2)[GlcNAc(b1-4)]Man(a1-3)[GlcNAc(b1-4)][GlcNAc(b1-2)Man(a1-6)]Man(b1-4)GlcNAc(b1-4)GlcNAc
Summary of the method: as §1

[9] = target: GlcNAc(b1-2)[GlcNAc(b1-4)]Man(a1-3)[GlcNAc(b1-4)][GlcNAc(b1-2)[GlcNAc(b1-6)]Man(a1-6)]Man(b1-4)GlcNAc(b1-4)GlcNAc
Summary of the method: as §1

[10] = target: GlcNAc(b1-2)[GlcNAc(b1-4)]Man(a1-3)[GlcNAc(b1-4)][GlcNAc(b1-2)[GlcNAc(b1-6)]Man(a1-6)]Man(b1-4)GlcNAc(b1-4)[Fuc(a1-6)]GlcNAc
Summary of the method: as §1

[11] = target: GlcNAc(b1-2)[GlcNAc(b1-6)]Man(a1-6)[GlcNAc(b1-2)Man(a1-3)]Man(b1-4)GlcNAc(b1-4)GlcNAc
Summary of the method: as §1

[12] = target: GlcNAc(b1-2)[GlcNAc(b1-6)]Man(a1-6)[GlcNAc(b1-2)Man(a1-3)]Man(b1-4)GlcNAc(b1-4)[Fuc(a1-6)]GlcNAc
Summary of the method: as §1

[13] = target: GlcNAc(b1-2)[GlcNAc(b1-6)]Man(a1-6)[GlcNAc(b1-4)][GlcNAc(b1-2)Man(a1-3)]Man(b1-4)GlcNAc(b1-4)GlcNAc
Summary of the method: as §1

GlcNAc(b1-3)Fuc = target: GlcNAc(b1-3)Fuc
Summary of the method: as §1

GlcNAc(b1-3)Gal = target: GlcNAc(b1-3)Gal
Summary of the method: as §1

[14] = target: GlcNAc(b1-3)Gal(b1-3)GalNAc
Summary of the method: as §1

GlcNAc(b1-3)Gal(b1-4)Glc = target: GlcNAc(b1-3)Gal(b1-4)Glc
Summary of the method: as §1

[15] = target: GlcNAc(b1-3)Gal(b1-4)GlcNAc
Summary of the method: as §1

[16] = target: GlcNAc(b1-3)Gal(b1-4)GlcNAc(b1-2)Man(a1-3)[GlcNAc(b1-3)Gal(b1-4)GlcNAc(b1-2)Man(a1-6)]Man(b1-4)GlcNAc(b1-4)GlcNAc
Summary of the method: as §1

[17] = target: GlcNAc(b1-3)Gal(b1-4)GlcNAc(b1-2)Man(a1-3)[GlcNAc(b1-3)Gal(b1-4)GlcNAc(b1-2)Man(a1-6)]Man(b1-4)GlcNAc(b1-4)[Fuc(a1-6)]GlcNAc
Summary of the method: as §1

[18] = target: GlcNAc(b1-3)Gal(b1-4)GlcNAc(b1-2)[GlcNAc(b1-3)Gal(b1-4)GlcNAc(b1-6)]Man(a1-6)[GlcNAc(b1-3)Gal(b1-4)GlcNAc(b1-2)Man(a1-3)]Man(b1-4)GlcNAc(b1-4)GlcNAc
Summary of the method: as §1

[19] = target: GlcNAc(b1-3)Gal(b1-4)GlcNAc(b1-3)Gal(b1-4)GlcNAc
Summary of the method: as §1

[20] = target: GlcNAc(b1-3)Gal(b1-4)GlcNAc(b1-3)Gal(b1-4)GlcNAc(b1-2)Man(a1-3)[GlcNAc(b1-3)Gal(b1-4)GlcNAc(b1-3)Gal(b1-4)GlcNAc(b1-2)Man(a1-6)]Man(b1-4)GlcNAc(b1-4)GlcNAc
Summary of the method: as §1

[21] = target: GlcNAc(b1-3)Gal(b1-4)GlcNAc(b1-3)Gal(b1-4)GlcNAc(b1-2)Man(a1-3)[GlcNAc(b1-3)Gal(b1-4)GlcNAc(b1-3)Gal(b1-4)GlcNAc(b1-2)Man(a1-6)]Man(b1-4)GlcNAc(b1-4)[Fuc(a1-6)]GlcNAc
Summary of the method: as §1

[22] = target: GlcNAc(b1-3)Gal(b1-4)GlcNAc(b1-3)Gal(b1-4)GlcNAc(b1-2)[GlcNAc(b1-3)Gal(b1-4)GlcNAc(b1-3)Gal(b1-4)GlcNAc(b1-6)]Man(a1-6)[GlcNAc(b1-3)Gal(b1-4)GlcNAc(b1-3)Gal(b1-4)GlcNAc(b1-2)Man(a1-3)]Man(b1-4)GlcNAc(b1-4)[Fuc(a1-6)]GlcNAc
Summary of the method: as §1

[23] = target: GlcNAc(b1-3)Gal(b1-4)GlcNAc(b1-3)Gal(b1-4)GlcNAc(b1-3)Gal(b1-4)GlcNAc(b1-2)Man(a1-3)[GlcNAc(b1-3)Gal(b1-4)GlcNAc(b1-3)Gal(b1-4)GlcNAc(b1-3)Gal(b1-4)GlcNAc(b1-2)Man(a1-6)]Man(b1-4)GlcNAc(b1-4)GlcNAc
Summary of the method: as §1

[24] = target: GlcNAc(b1-3)Gal(b1-4)GlcNAc(b1-3)Gal(b1-4)GlcNAc(b1-3)Gal(b1-4)GlcNAc(b1-2)Man(a1-3)[GlcNAc(b1-3)Gal(b1-4)GlcNAc(b1-3)Gal(b1-4)GlcNAc(b1-3)Gal(b1-4)GlcNAc(b1-2)Man(a1-6)]Man(b1-4)GlcNAc(b1-4)[Fuc(a1-6)]GlcNAc
Summary of the method: as §1

[25] = target: GlcNAc(b1-3)Gal(b1-4)GlcNAc(b1-3)Gal(b1-4)GlcNAc(b1-3)Gal(b1-4)GlcNAc(b1-2)[GlcNAc(b1-3)Gal(b1-4)GlcNAc(b1-3)Gal(b1-4)GlcNAc(b1-3)Gal(b1-4)GlcNAc(b1-6)]Man(a1-6)[GlcNAc(b1-3)Gal(b1-4)GlcNAc(b1-3)Gal(b1-4)GlcNAc(b1-3)Gal(b1-4)GlcNAc(b1-2)Man(a1-3)]Man(b1-4)GlcNAc(b1-4)[Fuc(a1-6)]GlcNAc
Summary of the method: as §1

[26] = target: GlcNAc(b1-3)Gal(b1-4)GlcNAc(b1-3)Gal(b1-4)GlcNAc(b1-3)Gal(b1-4)GlcNAc(b1-3)Gal(b1-4)GlcNAc(b1-2)Man(a1-3)[GlcNAc(b1-3)Gal(b1-4)GlcNAc(b1-3)Gal(b1-4)GlcNAc(b1-3)Gal(b1-4)GlcNAc(b1-3)Gal(b1-4)GlcNAc(b1-2)Man(a1-6)]Man(b1-4)GlcNAc(b1-4)GlcNAc
Summary of the method: as §1

[27] = target: GlcNAc(b1-3)Gal(b1-4)GlcNAc(b1-3)Gal(b1-4)GlcNAc(b1-3)Gal(b1-4)GlcNAc(b1-3)Gal(b1-4)GlcNAc(b1-2)Man(a1-3)[GlcNAc(b1-3)Gal(b1-4)GlcNAc(b1-3)Gal(b1-4)GlcNAc(b1-3)Gal(b1-4)GlcNAc(b1-3)Gal(b1-4)GlcNAc(b1-2)Man(a1-6)]Man(b1-4)GlcNAc(b1-4)[Fuc(a1-6)]GlcNAc
Summary of the method: as §1

B1: Di AAL2 (Agrocybe aegerita) (protein)
chain: MTSNVITQDLPIPVASRGFADIVGFGLDGVVIGRNAVNLQPFLAVKNFAQNAGGWLTTKHVRLIADTTGTGKGDIVGFGNAGVYVSVNNGKNTFADPPKMVIANFGYDAGGWRVEKHLRYLADIRKIGRADIIGFGEKGVLVSRNNGGLNFGPATLVLKDFGYDAGGWRLDRHLRFLADVTGNGHLDIVGFGDKHVFISRNNGDGTFAPAKSVIDNFCIDAGGWKIGDHPRFVADLTGDGTADIIGCGKAGCWVALNNGGGVFGQVKLVINDFGTDKGWQAAKHPRFIADLTGNGRGDVVGFGNAGVYVALNNGDGTFQSAKLVLKDFGVQQGWTVSKHRRFVVDLTGDGCADIIGFGEKETLVSYNDGKGNFGPVKALTNDFSFSGGKWAPETTVCWMANLDSSRHPAPAPMTSNVITQDLPIPVASRGFADIVGFGLDGVVIGRNAVNLQPFLAVKNFAQNAGGWLTTKHVRLIADTTGTGKGDIVGFGNAGVYVSVNNGKNTFADPPKMVIANFGYDAGGWRVEKHLRYLADIRKIGRADIIGFGEKGVLVSRNNGGLNFGPATLVLKDFGYDAGGWRLDRHLRFLADVTGNGHLDIVGFGDKHVFISRNNGDGTFAPAKSVIDNFCIDAGGWKIGDHPRFVADLTGDGTADIIGCGKAGCWVALNNGGGVFGQVKLVINDFGTDKGWQAAKHPRFIADLTGNGRGDVVGFGNAGVYVALNNGDGTFQSAKLVLKDFGVQQGWTVSKHRRFVVDLTGDGCADIIGFGEKETLVSYNDGKGNFGPVKALTNDFSFSGGKWAPETTVCWMANLDSSRH
glycan array binding signal (z-score) [1]: 0.953
glycan array binding signal (z-score) [2]: -0.219
glycan array binding signal (z-score) [3]: 1.51
glycan array binding signal (z-score) [4]: -0.266
glycan array binding signal (z-score) [5]: -0.275
glycan array binding signal (z-score) [6]: -0.212
glycan array binding signal (z-score) [7]: 0.327
glycan array binding signal (z-score) [8]: -0.21
glycan array binding signal (z-score) [9]: -0.27
glycan array binding signal (z-score) [10]: -0.291
glycan array binding signal (z-score) [11]: 0.527
glycan array binding signal (z-score) [12]: 1.38
glycan array binding signal (z-score) [13]: -0.312
glycan array binding signal (z-score) (GlcNAc(b1-3)Fuc): 0.24
glycan array binding signal (z-score) (GlcNAc(b1-3)Gal): 2.83
glycan array binding signal (z-score) [14]: 1.75
glycan array binding signal (z-score) (GlcNAc(b1-3)Gal(b1-4)Glc): 1.86
glycan array binding signal (z-score) [15]: 2.27
glycan array binding signal (z-score) [16]: 3.25
glycan array binding signal (z-score) [17]: 3.42
glycan array binding signal (z-score) [18]: 5.83
glycan array binding signal (z-score) [19]: 2.13
glycan array binding signal (z-score) [20]: 3.47
glycan array binding signal (z-score) [21]: 3.72
glycan array binding signal (z-score) [22]: 5.12
glycan array binding signal (z-score) [23]: 5.42
glycan array binding signal (z-score) [24]: 4.23
glycan array binding signal (z-score) [25]: 5.39
glycan array binding signal (z-score) [26]: 5.42
glycan array binding signal (z-score) [27]: 5.09
